{"source": "the supplement of paper PMC7726561", "sequences": {"B1": {"name": "unnamed (peptide)", "chain": "RPQKPSLEF"}, "B2": {"name": "unnamed (peptide)", "chain": "SPAPRTAL"}, "B3": {"name": "unnamed (peptide)", "chain": "SPRSYQDFFE"}, "B4": {"name": "unnamed (peptide)", "chain": "YPGSDRIML"}, "B5": {"name": "unnamed (peptide)", "chain": "YPRFLSSPT"}, "B6": {"name": "unnamed (peptide)", "chain": "SPRMPVGDFF"}, "B7": {"name": "unnamed (peptide)", "chain": "QPRGSQAWVL"}, "B8": {"name": "unnamed (peptide)", "chain": "LPNIHPEL"}, "B9": {"name": "unnamed (peptide)", "chain": "IPRNPDGGPL"}, "B10": {"name": "unnamed (peptide)", "chain": "TPQSILRSTL"}, "B11": {"name": "unnamed (peptide)", "chain": "APRDAYWIAM"}, "B12": {"name": "unnamed (peptide)", "chain": "HPFPGPGLAI"}, "B13": {"name": "unnamed (peptide)", "chain": "LPRLTPPVL"}, "B14": {"name": "unnamed (peptide)", "chain": "APRKGTVWSL"}, "B15": {"name": "unnamed (peptide)", "chain": "APAGLPRETL"}, "B16": {"name": "unnamed (peptide)", "chain": "SPLPSRTGSL"}, "B17": {"name": "unnamed (peptide)", "chain": "VPRSASVLLL"}, "B18": {"name": "unnamed (peptide)", "chain": "RPDYRNITF"}, "B19": {"name": "unnamed (peptide)", "chain": "SPSPVLRLVL"}, "B20": {"name": "unnamed (peptide)", "chain": "MPSFSKIGGIL"}, "B21": {"name": "unnamed (peptide)", "chain": "QPHLVNIQF"}, "B22": {"name": "unnamed (peptide)", "chain": "APVGNQPPVL"}, "B23": {"name": "unnamed (peptide)", "chain": "WPKDVGIVAL"}, "B24": {"name": "unnamed (peptide)", "chain": "LVRPVFGEL"}, "B25": {"name": "unnamed (peptide)", "chain": "NPRNTEAVTL"}, "B26": {"name": "unnamed (peptide)", "chain": "KPYGPMSVGL"}, "B27": {"name": "unnamed (peptide)", "chain": "NPMVTGTSV"}, "B28": {"name": "unnamed (peptide)", "chain": "APRPFPEVSL"}, "B29": {"name": "unnamed (peptide)", "chain": "KPRNVVFVDM"}, "B30": {"name": "unnamed (peptide)", "chain": "IPMTGKPSL"}, "B31": {"name": "unnamed (peptide)", "chain": "RPSLLPLH"}, "B32": {"name": "unnamed (peptide)", "chain": "APRTPHFDVI"}, "B33": {"name": "unnamed (peptide)", "chain": "APKRPPSAF"}, "B34": {"name": "unnamed (peptide)", "chain": "GPFPGKFNEV"}, "B35": {"name": "unnamed (peptide)", "chain": "SPRAPVQVI"}}, "note": "The full ranking holds about 1,400 sequences; the median of “thermal melting temperature (Tm) of peptide-HLA complex” is about 60, and the lowest 2% start at about 45. The list shows a part of the results.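 Also: cell lysates heated 10 min at 37–73 °C, remaining pHLA pulled down with pan-class I antibody, peptides quantified by DIA-MS versus 37 °C, Tm where half the complex is lost.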", "data": [{"molecular_target": "HLA-B*07:02", "experiment": "thermal melting temperature (Tm) of peptide-HLA complex; higher = more thermostable pHLA complex", "conditions": "C1R-B*07:02", "units": {"thermal melting temperature": "°C"}, "values": [{"sequence": "B1", "thermal melting temperature": 61.8}, {"sequence": "B2", "thermal melting temperature": 57.4}, {"sequence": "B3", "thermal melting temperature": 46.4}, {"sequence": "B4", "thermal melting temperature": 59.5}, {"sequence": "B5", "thermal melting temperature": 61}, {"sequence": "B6", "thermal melting temperature": 59.9}, {"sequence": "B7", "thermal melting temperature": 57.2}, {"sequence": "B8", "thermal melting temperature": 59.1}, {"sequence": "B9", "thermal melting temperature": 54.7}, {"sequence": "B10", "thermal melting temperature": 57.6}, {"sequence": "B11", "thermal melting temperature": 63.5}, {"sequence": "B12", "thermal melting temperature": 60.5}, {"sequence": "B13", "thermal melting temperature": 62.1}, {"sequence": "B14", "thermal melting temperature": 61.5}, {"sequence": "B15", "thermal melting temperature": 58.1}, {"sequence": "B16", "thermal melting temperature": 50.1}, {"sequence": "B17", "thermal melting temperature": 61.9}, {"sequence": "B18", "thermal melting temperature": 61.7}, {"sequence": "B19", "thermal melting temperature": 59.6}, {"sequence": "B20", "thermal melting temperature": 62.2}, {"sequence": "B21", "thermal melting temperature": 41.6}, {"sequence": "B22", "thermal melting temperature": 58.6}, {"sequence": "B23", "thermal melting temperature": 63.1}, {"sequence": "B24", "thermal melting temperature": 66}, {"sequence": "B25", "thermal melting temperature": 56.8}, {"sequence": "B26", "thermal melting temperature": 57.4}, {"sequence": "B27", "thermal melting temperature": 56.3}, {"sequence": "B28", "thermal melting temperature": 63.5}, {"sequence": "B29", "thermal melting temperature": 59.4}, {"sequence": "B30", "thermal melting temperature": 61.3}, {"sequence": "B31", "thermal melting temperature": 61.5}, {"sequence": "B32", "thermal melting temperature": 60.6}, {"sequence": "B33", "thermal melting temperature": 62.6}, {"sequence": "B34", "thermal melting temperature": 55}, {"sequence": "B35", "thermal melting temperature": 59.3}]}]}
